PubChem BioAssay AID504332 (National Center for Advancing Translational Sciences (NCATS), 2011)
The whole screen tested about 350,000 compounds, of which about 31,000 (8.9%) were called active. The inconclusive results got no clear call from the source; some entries with a clear call stand among them for comparison. Calls follow the shape of the dose curve; as a rule, active = well fitted inhibition curve with a large enough effect; inconclusive = small, poorly fitted or top-dose-only effect; inactive = no such curve, though single readings can be large or run the other way. Potencies of inconclusive entries are doubtful fits and often do not repeat.

Each molecule was assayed against Histone-lysine N-methyltransferase EHMT2 (Homo sapiens) (UniProt Q96KQ7) (assay: qHTS Assay for Inhibitors of Histone Lysine Methyltransferase G9a). Settings: G9a H3K9 monomethylation, AlphaScreen, 2 h; activity, negative = inhibition: at 59 µM (top of the series) unless noted.
UniProt Q96KQ7, sequence (Q96KQ7 whole entry, looked up): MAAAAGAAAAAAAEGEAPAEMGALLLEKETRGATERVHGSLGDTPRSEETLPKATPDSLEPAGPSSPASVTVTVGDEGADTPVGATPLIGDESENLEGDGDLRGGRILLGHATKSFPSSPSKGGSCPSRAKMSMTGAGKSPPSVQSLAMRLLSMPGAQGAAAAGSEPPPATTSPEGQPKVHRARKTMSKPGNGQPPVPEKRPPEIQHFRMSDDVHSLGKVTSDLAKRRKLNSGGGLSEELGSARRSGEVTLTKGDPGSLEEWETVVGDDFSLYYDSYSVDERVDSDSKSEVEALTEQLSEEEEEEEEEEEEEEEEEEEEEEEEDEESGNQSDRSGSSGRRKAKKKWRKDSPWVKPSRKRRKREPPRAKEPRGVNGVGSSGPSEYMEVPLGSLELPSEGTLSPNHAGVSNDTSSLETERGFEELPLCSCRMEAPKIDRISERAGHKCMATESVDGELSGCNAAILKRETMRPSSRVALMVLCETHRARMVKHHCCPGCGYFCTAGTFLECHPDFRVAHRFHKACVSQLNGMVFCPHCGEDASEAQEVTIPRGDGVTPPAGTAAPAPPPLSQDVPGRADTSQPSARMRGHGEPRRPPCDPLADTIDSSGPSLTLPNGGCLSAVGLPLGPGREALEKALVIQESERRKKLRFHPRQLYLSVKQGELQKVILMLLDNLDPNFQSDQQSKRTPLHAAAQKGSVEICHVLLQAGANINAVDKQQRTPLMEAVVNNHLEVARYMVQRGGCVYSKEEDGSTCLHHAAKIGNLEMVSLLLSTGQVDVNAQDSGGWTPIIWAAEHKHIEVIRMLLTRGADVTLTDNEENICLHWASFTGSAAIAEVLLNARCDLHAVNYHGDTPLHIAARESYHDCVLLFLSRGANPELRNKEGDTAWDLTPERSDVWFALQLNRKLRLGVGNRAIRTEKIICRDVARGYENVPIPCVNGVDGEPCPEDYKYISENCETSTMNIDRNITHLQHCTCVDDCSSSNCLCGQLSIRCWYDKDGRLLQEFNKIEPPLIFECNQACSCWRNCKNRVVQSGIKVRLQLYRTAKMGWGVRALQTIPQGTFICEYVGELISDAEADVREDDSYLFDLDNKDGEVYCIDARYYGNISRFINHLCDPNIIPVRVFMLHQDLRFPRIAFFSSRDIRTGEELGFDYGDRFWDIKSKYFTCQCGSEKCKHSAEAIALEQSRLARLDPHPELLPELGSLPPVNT
Procedure, shortened: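 G9a (20 nM) was preincubated 15 min with compound, then reacted 2 h at room temperature with 500 nM biotin-H3K9 peptide and 20 µM SAM. Monomethyl-H3K9 detected by AlphaScreen using anti-H3K9me1 antibody.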
% is scaled to controls: 0 for no effect and ±100 for the full control effect; potency is read from the fitted curve at half-maximal effect; tags tell the direction and shape of the fitted curve.
Also: nearly all actives have a fitted effect of over 75% in size.

| Structure (SMILES) | activity, negative = inhibition | Potency |
| --- | --- | --- |
| CCn1c(SCC(=O)Nc2ccc(C)c(C)c2)nnc1-c1nonc1NC(C)=O | inactive: 2.58% | – |
| CCc1ccccc1NC(=O)C(=O)NCCc1sc(-c2cccc(C)c2)nc1C | inactive: 7.01% | – |
| CN(c1ccc([N+](=O)[O-])cc1C(N)=O)C1CCCCC1 | inactive: -33.5% [at 102 µM] | – |
| CCOc1ccccc1NC(=O)Cc1cccs1 | – | inconclusive: 15.8 µM [inhibitor, partial curve, poor fit] |
| COC(=O)/C(C#N)=C/c1c(N2CCN(c3ccc(OC)cc3)CC2)nc2c(C)cccn2c1=O | – | inconclusive: 56.2 µM [inhibitor, partial curve, poor fit] |
| Cc1oc2cc(Br)c(O)c(Br)c2c1-c1ccccc1 | – | inconclusive: 79.4 µM [inhibitor, single point] |
| O=C(Nc1ccc(O)c(C(=O)O)c1)Oc1ccccc1 | – | active: 50.1 µM |
| CCOP(=O)(OCC)C(Nc1cccc([N+](=O)[O-])c1)c1ccc(N(C)C)cc1 (centres undefined) | – | inconclusive: 17.8 µM [inhibitor, partial curve, poor fit] |
| O=C(NCCCN1CCOCC1)c1cc(-c2ccc3c(c2)OCO3)nc2ccccc12 | – | inconclusive: 100 µM [inhibitor, single point] |
| COC(=O)CN1C(=S)N(c2ccc(Cl)cc2)C(=O)C1CC(=O)Nc1ccc(F)cc1 (centres undefined) | – | active: 50.1 µM |
| O=C(Nc1cc([N+](=O)[O-])ccc1O)NC1CCS(=O)(=O)C1 (centres undefined) | – | active: 15.8 µM |
| CS(=O)(=O)Oc1ccc2c(c1)O/C(=C\C=C\c1ccccc1)C2=O | – | inconclusive: 10 µM [inhibitor, partial curve, poor fit] |
| Cc1ccc(O)c(NC(=O)c2nc3nc(C)cc(C(F)F)n3n2)c1 | – | inconclusive: 2.51 µM [inhibitor, full curve, poor fit] |
| O=C(COc1ccc2ccccc2c1Br)NCc1ccccn1 | inactive: 8.65% [at 102 µM] | – |
| CC(=O)C1=C(O)CC(c2ccccc2)CC1=NCCc1c(C)[nH]c2ccccc12 (centres undefined) | – | inconclusive: 79.4 µM [inhibitor, single point] |
| O=C(COC(=O)c1nc(Cl)ccc1Cl)Nc1ncc(Cl)cc1Cl | inconclusive: -56% [inhibitor] [at 0.501 µM] | – |
| COCCn1c(SCC(=O)c2c[nH]c3ccccc23)nc2cc(C(=O)NCC(C)C)ccc2c1=O | inactive: 4.5% | – |
| COc1cccc(N2CCN(C(=O)c3nc(-c4ccc(Cl)cc4)n4c3CCCCC4)CC2)c1 | – | active: 17.8 µM |
| CCn1c(SCC(=O)NC(=O)NCc2ccco2)nc2sc(C)c(C)c2c1=O | – | inconclusive: 3.16 µM [inhibitor, partial curve, poor fit] |
| Cc1cccc2sc(NC(=O)c3ccc(NS(=O)(=O)c4cccs4)cc3)nc12 | – | inconclusive: 89.1 µM [inhibitor, single point] |
| C/C(=C\c1ccccc1)CN1CCC(C(=O)N2CCCC(C)C2)CC1 (centres undefined) | – | active: 12.6 µM |
| Cc1cc(C)nc(N(C#N)CN2C(=O)c3ccccc3S2(=O)=O)n1 | – | inconclusive: 31.6 µM [inhibitor, single point] |

| Structure (SMILES) | activity, negative = inhibition | Potency |
| --- | --- | --- |
| COc1ccc(NC(=O)C2CC(=O)N(Cc3ccco3)C2)cc1Cl (centres undefined) | inactive: 1.58% [at 12.7 µM] | – |
| CCc1cccc(C)c1Nc1c(-c2cccc(O)c2)nc2sccn12 | – | inconclusive: 35.5 µM [inhibitor, single point] |
| Cc1[nH]c2ccccc2c1C1(O)C(=O)N(Cc2ccc(Cl)cc2)c2ccccc21 (centres undefined) | – | inconclusive: 39.8 µM [inhibitor, partial curve, poor fit] |
| Cc1ccc(-c2cc(C(=O)NCCCn3ccnc3)c3cc(Br)ccc3n2)o1 | – | inconclusive: 1.41 µM [inhibitor, full curve, poor fit] |
| Cc1ccc(C)c(NC(=O)CSc2nnc(-c3ccco3)o2)c1 | – | inconclusive: 3.16 µM [inhibitor, partial curve, poor fit] |
| CCCc1[nH]nc2c1C1(C(=O)N(C(C)C)c3ccccc31)C(C#N)=C(N)O2 (centres undefined) | inactive: -26.5% [at 12.7 µM] | – |
| COc1cccc(NC(=O)c2sc3nc(N4CCOCC4)c4c(c3c2N)CCCC4)c1 | – | inconclusive: 35.5 µM [inhibitor, full curve, poor fit] |
| O=C1c2ccncc2C(=O)N1c1cccc(Cl)c1 | – | inconclusive: 44.7 µM [inhibitor, partial curve, poor fit] |
| COc1ccc(/C=C2\CCC(C3CCCC3)C2=O)c(OC)c1OC (centres undefined) | inactive: -4.18% [at 2.33 µM] | – |
| S=c1[nH]nc(CN2CCCCC2)n1Cc1ccccc1 | – | active: 22.4 µM |
| CCOC(=O)c1ccc(N=C2SC(C(=O)Nc3ccc(C(=O)O)cc3)CC(=O)N2Cc2cccs2)cc1 (centres undefined) | – | inconclusive: 39.8 µM [inhibitor, partial curve] |
| CC(=O)CCC(=O)OCC(=O)Nc1ccc(SC(F)F)cc1 | – | inconclusive: 89.1 µM [inhibitor, single point] |
| COCc1c(C(=O)N/N=C\c2cccnc2)nnn1-c1nonc1N | – | inconclusive: 79.4 µM [inhibitor, single point] |
| Cc1ccc(CCC(=O)Nc2ccc(S(N)(=O)=O)cc2)o1 | – | active: 2.24 µM |
| O=C(Nc1ccccc1)C1CCN(C(=O)c2ccc([N+](=O)[O-])cc2)CC1 | – | inconclusive: 1.78 µM [inhibitor, partial curve, poor fit] |
| Cc1ccc(C(=O)OCC(=O)c2c(N)n(C)c(=O)n(C)c2=O)cc1S(=O)(=O)N1CCOCC1 | inactive: 9.54% | – |
| COc1ccc(S(=O)(=O)N(CC(C)C)C2CCS(=O)(=O)C2)cc1OC (centres undefined) | inactive: -3.15% [at 102 µM] | – |
| O=C(NC(CC(=O)N1CCN(c2ccccc2O)CC1)c1ccccc1)c1ccccc1Cl (centres undefined) | – | inconclusive: 15.8 µM [inhibitor, single point] |
| CCCCOc1ccc(C(=O)NCCc2csc3nc(-c4ccccc4F)nn23)cc1 | inactive: 5.07% | – |
| COCCn1c(C)cc(C2=NNC(=Nc3ccc(F)cc3)SC2)c1C | inconclusive: -78.2% [inhibitor] | – |
| COc1ccc(Cn2ccnc2)cc1Br | – | inconclusive: 25.1 µM [inhibitor, single point] |
| CCN(CC)S(=O)(=O)c1ccc(C2=NOC3(C2)N(C)c2ccccc2C3(C)C)cc1 (centres undefined) | – | inconclusive: 8.91 µM [inhibitor, full curve, poor fit] |
